{"source": "PubChem BioAssay AID463173", "about": "(ICCB-Longwood Screening Facility, Harvard Medical School, 2010)", "note": "In all, about 52,000 compounds went through this assay and about 1,700 (3.3%) were called active. No stated cut-off is given here; in the data, active means survival mostly below about 52% (no sharp cut-off); inactive means mostly above about 56%. The list shows a part of the results.", "data": [{"system": "Wild type", "assay": "S. aureus survival, RN4220 and DeltatarO strains – OD600, teichoic acid synthesis inhibitors, primary screen (AID 463173)", "details": "S. aureus RN4220 wild type/DeltatarO growth, OD600, 18 h, hits give low values, screened at 18.75 µg/mL (by protocol)", "values": [{"smiles": "COc1cccc(-n2c(=O)c3sc4ccccc4c3n(CC(=O)NC3CCCCC3)c2=O)c1", "survival": "inactive: 147%"}, {"smiles": "CCOC(=O)c1cc2c(=O)n3ccccc3nc2n(CCOC)c1=NC(=O)c1c(-c2ccccc2Cl)noc1C", "survival": "inactive: 150%"}, {"smiles": "Cn1c(=O)oc2cc(S(=O)(=O)NCCC(=O)Nc3ccc(F)cc3F)ccc21", "survival": "inactive: 74%"}, {"smiles": "CCN(CC)S(=O)(=O)c1ccc(OC)c(-n2cnnn2)c1", "survival": "inactive: 73%"}, {"smiles": "CCOC(=O)Nc1ccc2c(c1)N(CCCN(C)C)c1ccccc1CC2", "survival": "inactive: 105%"}, {"smiles": "Cc1cc(OCC(=O)Nc2ncn[nH]2)ccc1Cl", "survival": "inactive: 78%"}, {"smiles": "Cc1ccc(S(=O)(=O)N(CC(=O)Nc2ccc3c(c2)OCO3)c2cc(Cl)cc(Cl)c2)cc1", "survival": "inactive: 141%"}, {"smiles": "COc1ccc(CNC(=O)Cn2c(=O)nc(-c3ccccc3)c3ccccc32)cc1OC", "survival": "inactive: 68%"}, {"smiles": "CCCCC(=O)NC1CC(=O)N(c2ccc3c(c2)OCCO3)C1", "note": "(centres undefined)", "survival": "inactive: 152%"}, {"smiles": "CC(C)CCNC(=O)Cc1ccc(NC(=O)N2CCCCc3ccccc32)cc1", "survival": "inactive: 70%"}, {"smiles": "O=C(NCCC1=CCCCC1)c1ccc2c(c1)N(Cc1cccc(Cl)c1)C(=O)c1ccccc1S2=O", "note": "(centres undefined)", "survival": "inactive: 32%"}, {"smiles": "O=C(O)CCSc1nc(-c2ccccc2)cc(=O)[nH]1", "survival": "inactive: 104%"}, {"smiles": "CCCCn1c(SCC(=O)c2ccccc2)nc2c(sc3ccccc32)c1=O", "survival": "active: -1%"}, {"smiles": "COC(=O)c1cc2oc3ccccc3c2n1Cc1nc(-c2ccc(Cl)cc2)oc1C", "survival": "inactive: 80%"}, {"smiles": "CCN(C(=O)Cn1nnc2sc3c(c2c1=O)CCC(C(C)(C)C)C3)c1cccc(C)c1", "note": "(centres undefined)", "survival": "inactive: 79%"}, {"smiles": "Cc1nc2c(-c3ccc(F)cc3)c(C)nn2c(C)c1CCC(=O)N1CCN(c2ccccc2)CC1", "survival": "inactive: 75%"}, {"smiles": "CC(=O)OC1OCCOC1OC(C)=O", "note": "(centres undefined)", "survival": "inactive: 103%"}, {"smiles": "O=C(C(F)F)N(Cc1ccccc1)Cc1ccccc1", "survival": "inactive: 101%"}, {"smiles": "CCc1ccc(CNC(=O)c2nn(-c3ccc(C)cc3)c(=O)c3c2c2ccccc2n3C)cc1", "survival": "inactive: 151%"}, {"smiles": "COc1cc(CCC(=O)NCc2ccc3c(c2)CCN3C(=O)c2ccccc2)cc(OC)c1OC", "survival": "inactive: 129%"}, {"smiles": "CC(=O)c1ccc(N2CCN(C(=O)C3CCCN(S(=O)(=O)c4ccc(Br)s4)C3)CC2)cc1", "note": "(centres undefined)", "survival": "inactive: 71%"}, {"smiles": "Cc1ccc(-n2nc3ccc(NC(=O)COc4ccccc4C)cc3n2)cc1", "survival": "inactive: 101%"}, {"smiles": "CCC1CN(S(=O)(=O)c2cc(-c3cc(C)no3)ccc2C)c2cc(C)ccc2O1", "note": "(centres undefined)", "survival": "inactive: 64%"}, {"smiles": "COC(=O)CSc1ncc(C#N)c(N)n1", "survival": "inactive: 104%"}, {"smiles": "CSc1ccc(CCNC(=O)c2cc(C)nc3c2c(C)nn3-c2ccccc2)cc1", "survival": "inactive: 124%"}, {"smiles": "Cc1ccc(-n2nc(CO)c(C(=O)NCCCCc3ccccc3)n2)cc1C", "survival": "inactive: 121%"}, {"smiles": "Cc1ccc(-c2nnc(Nc3cccc(Cl)c3)c3ccccc23)cc1S(=O)(=O)N1CCCCC1", "survival": "inactive: 88%"}, {"smiles": "COc1ccc(-c2nnc(SCC(=O)NCCc3ccc(OC)c(OC)c3)nc2-c2ccc(OC)cc2)cc1", "survival": "inactive: 95%"}, {"smiles": "Cc1nc2cccnc2n1-c1cccc(C(=O)N2CCN(c3cccc(Cl)c3)CC2)c1", "survival": "inactive: 102%"}, {"smiles": "Cc1ccc(C)c(N2CCN(S(=O)(=O)c3cc(-c4cc(C)no4)ccc3C)CC2)c1", "survival": "inactive: 73%"}, {"smiles": "Cc1cc(C)c(NC(=O)Cn2nc(-c3ccncc3)ccc2=O)c(C)c1", "survival": "inactive: 68%"}, {"smiles": "CCCn1c(=O)n(-c2ccccc2Cl)c(=O)c2sc3ccccc3c21", "survival": "inactive: 85%"}, {"smiles": "O=C(CN1C(=O)C(c2ccc(F)cc2)=NC12CCCCCC2)Nc1ccccc1Cl", "survival": "inactive: 82%"}, {"smiles": "CC(C)CC(NS(=O)(=O)c1ccccc1)C(=O)O", "note": "(centres undefined)", "survival": "inactive: 111%"}, {"smiles": "COc1ccc(-c2ccc3c(N)c(C(=O)Nc4ccc(C(F)(F)F)cc4)sc3n2)cc1OC", "survival": "inactive: 123%"}, {"smiles": "CC1=Nc2cc(C(=O)NCc3ccccc3Cl)ccc2Sc2c(C)ccc(C)c21", "survival": "inactive: 91%"}, {"smiles": "Cc1ccc(-c2cc3ncc(C(=O)c4cc(Cl)c(C)cc4O)cn3n2)cc1", "survival": "inactive: 91%"}, {"smiles": "CCN(C(=O)CSc1ncc2c(n1)-c1cc(Cl)ccc1N(Cc1ccccc1)S2(=O)=O)c1cccc(C)c1", "survival": "inactive: 84%"}, {"smiles": "CCOc1ccc(Br)cc1C1C(C(=O)OC)=C(C)NC2=C1C(=O)c1ccccc12", "note": "(centres undefined)", "survival": "inactive: 68%"}, {"smiles": "Cc1ccc(Cl)cc1NC(=O)C(Cc1ccccc1)NS(=O)(=O)c1cccc2nsnc12", "note": "(centres undefined)", "survival": "inactive: 70%"}, {"smiles": "COc1ccc(C)cc1NC(=O)c1c2c(nc3ccccc13)C(=O)N(C1CCCCC1)C2", "survival": "inactive: 45%"}, {"smiles": "COc1ccc(OC)c(C2Nc3c(C)cc(C)cc3-c3cc(C)nn32)c1", "note": "(centres undefined)", "survival": "active: -14%"}, {"smiles": "Cc1ccc(NS(=O)(=O)c2ccc3c(c2)CC(=O)N3)cc1Cl", "survival": "inactive: 37%"}, {"smiles": "CCc1c(C)sc2c1CCN(C(=O)Nc1ccccc1C(=O)OC)C2c1ccc(OC)cc1", "note": "(centres undefined)", "survival": "inactive: 81%"}, {"smiles": "Cc1ccc(Cl)cc1N1CCN(C(=O)c2cc3ccc4cccnc4c3[nH]2)CC1", "survival": "inactive: 129%"}, {"smiles": "CC(C)c1ccc(C2=CC(c3cccc(Cl)c3)n3c(nc4ccccc43)N2)cc1", "note": "(centres undefined)", "survival": "inactive: 60%"}, {"smiles": "O=C(NCc1ccc(Cl)cc1)C1=Cc2cc(Br)ccc2OC1", "survival": "inactive: 110%"}, {"smiles": "CCOc1ccc(NC(=O)CN2C(=O)C(c3ccc(Cl)cc3)=NC2(C)C)cc1", "survival": "inactive: 87%"}, {"smiles": "CCC(=O)N1CCc2cc(Br)cc(S(=O)(=O)N3CCCC(C(=O)Nc4cc(C)ccc4OC)C3)c21", "note": "(centres undefined)", "survival": "inactive: 103%"}, {"smiles": "CCn1c(=O)cc(OCC(=O)N(C)c2ccc(OC)cc2)c2ccccc21", "survival": "inactive: 78%"}, {"smiles": "Oc1cccc(/C=N/N=C/c2cccc(O)c2O)c1O", "survival": "inactive: 110%"}, {"smiles": "COc1ccc(OC)c(CNC(=O)c2ccc3nc(C(C)C)oc3c2)c1", "survival": "inactive: 77%"}, {"smiles": "COc1cc(OC)c(NC(=O)c2c(N3CCCC3=O)c3cc(C)ccc3n2C)cc1Cl", "survival": "inactive: 76%"}, {"smiles": "CCCc1ccc(S(=O)(=O)N2CCC(c3nnc(-c4cccc(C)c4)o3)CC2)cc1", "survival": "inactive: 77%"}, {"smiles": "COc1ccc(Cl)cc1C(=O)Nc1ccc2nc(Nc3cccc(Cl)c3)cc(C)c2c1", "survival": "inactive: 74%"}, {"smiles": "O=C1/C(=C/c2ccco2)SC(=S)N1CCc1ccccc1", "survival": "inactive: 124%"}, {"smiles": "Cc1ccccc1OCC(=O)Nc1nnc(S(=O)(=O)N2CCCC2)s1", "survival": "inactive: 71%"}, {"smiles": "O=C(NCc1ccccc1)C1CCN(C(=O)NCc2ccccc2)CC1", "survival": "inactive: 94%"}, {"smiles": "CCn1c(=O)c2cc(C(=O)NCCCN3CCN(c4ccc(F)cc4)CC3)sc2c2ccccc21", "survival": "inactive: 84%"}, {"smiles": "CCOc1ccccc1NC(=O)Cn1ncc2c([nH]c3ccccc32)c1=O", "survival": "inactive: 131%"}, {"smiles": "CC(C)Oc1ccc(CNC(=O)c2ccc3c(c2)nc2n3CCCCC2)cc1", "survival": "inactive: 119%"}, {"smiles": "Cc1cccc(OC(C)C(=O)Nc2nonc2-c2ccc(Br)cc2)c1C", "note": "(centres undefined)", "survival": "inactive: 94%"}, {"smiles": "CCOC(=O)C1CCN(c2cc(C)c(C#N)c3nc4ccccc4n23)CC1", "survival": "inactive: 99%"}, {"smiles": "COc1ccc(C2=C(C)C(=O)N(Cc3ccc(C(=O)NC(C)c4ccccc4)cc3)S2(=O)=O)cc1", "note": "(centres undefined)", "survival": "inactive: 81%"}, {"smiles": "CCOc1ccc(N2CC(c3nc4ccccc4n3CCCCOc3ccc(OC)cc3)CC2=O)cc1", "note": "(centres undefined)", "survival": "inactive: 71%"}, {"smiles": "Cc1cc(=O)n2nc(N3CCC(C(=O)Nc4c(C)cccc4C)CC3)sc2n1", "survival": "inactive: 124%"}, {"smiles": "Cc1cccc(N2C(=O)CSC23C(=O)N(CC(=O)Nc2cccc(Cl)c2)c2ccccc23)c1", "note": "(centres undefined)", "survival": "inactive: 143%"}, {"smiles": "CC1CCN(S(=O)(=O)c2cc3c4c(c2)C(C)C(=O)N4CCC3)CC1", "note": "(centres undefined)", "survival": "inactive: 94%"}, {"smiles": "O=C(NCc1ccco1)C(c1cccs1)N(C(=O)C1COc2ccccc2O1)c1cccc(O)c1", "note": "(centres undefined)", "survival": "inactive: 121%"}, {"smiles": "COc1ccc(CNC(=O)CN2C(=O)CSc3ccc(S(=O)(=O)N(C)C)cc32)cc1", "survival": "inactive: 135%"}, {"smiles": "COc1ccccc1CCN1COc2c(cc3c(C)c(C)c(=O)oc3c2C)C1", "survival": "inactive: 110%"}, {"smiles": "C=C/C=C(\\C=C(C)C)N(C(=O)NC1CCCCC1)C1=NCCCS1", "survival": "inactive: 95%"}, {"smiles": "O=C(NC1CCCCCC1)C1c2ccccc2C(=O)N1Cc1ccc(F)cc1", "note": "(centres undefined)", "survival": "inactive: 116%"}, {"smiles": "CCOc1nc(C)c(/C=C/C(=O)O)c(OCC)n1", "survival": "inactive: 102%"}, {"smiles": "CCc1cccc(NC(=O)Cn2c(=O)n(CCC(=O)NCc3ccccc3Cl)c(=O)c3sccc32)c1", "survival": "inactive: 104%"}, {"smiles": "Oc1c(C(c2ccccc2)N2CCOCC2)sc2nc(-c3ccco3)nn12", "note": "(centres undefined)", "survival": "inactive: 88%"}, {"smiles": "COc1ccc(NC2SC(=O)N(c3ccccc3)C2=O)cc1", "note": "(centres undefined)", "survival": "inactive: 118%"}, {"smiles": "CCN(CC)c1ccc(NC(=O)CN2CCN(c3ccccc3OC)CC2)cc1", "survival": "inactive: 92%"}, {"smiles": "Nc1c(C(=O)Nc2cccc(F)c2)nnn1-c1cccc(C(F)(F)F)c1", "survival": "inactive: 70%"}, {"smiles": "CCOC(=O)C(Cc1ccccc1)N1C(=O)c2ccccc2C1=O", "note": "(centres undefined)", "survival": "inactive: 104%"}, {"smiles": "Cc1cc(C)cc(NC(=O)c2sc3nc4n(c(=O)c3c2C)N=C(c2ccccc2)CS4)c1", "survival": "inactive: 68%"}, {"smiles": "Cc1ccc(CNC(=O)Cn2c(=O)cc(C)c3c(C)nn(-c4cccc(F)c4)c32)cc1", "survival": "inactive: 86%"}, {"smiles": "Cc1ccc(C)c(N2CCN(S(=O)(=O)c3ccc(-c4cnc(C5CC5)o4)cc3)CC2)c1", "survival": "inactive: 69%"}, {"smiles": "CCc1oc(C(=O)O)cc1COC", "survival": "inactive: 89%"}, {"smiles": "Cc1ccccc1NC(=O)C(C)Sc1nnc(-c2ccccc2O)o1", "note": "(centres undefined)", "survival": "inactive: 117%"}, {"smiles": "O=C(Cn1ncc2c3ccccc3n(Cc3cccc(Cl)c3)c2c1=O)NCCCN1CCCCC1", "survival": "inactive: 124%"}, {"smiles": "CCOCCCNc1nc2c(S(=O)(=O)c3ccc(CC)cc3)nnn2c2ccc(Cl)cc12", "survival": "inactive: 75%"}, {"smiles": "O=C(NCCc1ccccc1)C1CCN(Cc2cc3ccccc3n2Cc2ccccc2)CC1", "survival": "inactive: 71%"}, {"smiles": "COc1ccc(-c2cn3cccnc3n2)cc1NC(=O)Nc1cc(C)ccc1C", "survival": "inactive: 90%"}]}]}
